Data as given in publication PMC4336329 (PLoS ONE, 2015).
In all, about 310,000 compounds went through this assay and about 14,000 (4.5%) showed an effect of 50% or more. The effect is printed as a negative number. Some of the results follow.

Biological target: human ether-à-go-go-related gene (hERG) potassium channel (human, UniProt Q12809)
Test: primary screen, population patch clamp on CHO cells stably expressing hERG
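Also: peak tail current of the secondary pulse compared with the same well before compound.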

Chain of human ether-à-go-go-related gene (hERG) potassium channel (Q12809 whole entry, looked up): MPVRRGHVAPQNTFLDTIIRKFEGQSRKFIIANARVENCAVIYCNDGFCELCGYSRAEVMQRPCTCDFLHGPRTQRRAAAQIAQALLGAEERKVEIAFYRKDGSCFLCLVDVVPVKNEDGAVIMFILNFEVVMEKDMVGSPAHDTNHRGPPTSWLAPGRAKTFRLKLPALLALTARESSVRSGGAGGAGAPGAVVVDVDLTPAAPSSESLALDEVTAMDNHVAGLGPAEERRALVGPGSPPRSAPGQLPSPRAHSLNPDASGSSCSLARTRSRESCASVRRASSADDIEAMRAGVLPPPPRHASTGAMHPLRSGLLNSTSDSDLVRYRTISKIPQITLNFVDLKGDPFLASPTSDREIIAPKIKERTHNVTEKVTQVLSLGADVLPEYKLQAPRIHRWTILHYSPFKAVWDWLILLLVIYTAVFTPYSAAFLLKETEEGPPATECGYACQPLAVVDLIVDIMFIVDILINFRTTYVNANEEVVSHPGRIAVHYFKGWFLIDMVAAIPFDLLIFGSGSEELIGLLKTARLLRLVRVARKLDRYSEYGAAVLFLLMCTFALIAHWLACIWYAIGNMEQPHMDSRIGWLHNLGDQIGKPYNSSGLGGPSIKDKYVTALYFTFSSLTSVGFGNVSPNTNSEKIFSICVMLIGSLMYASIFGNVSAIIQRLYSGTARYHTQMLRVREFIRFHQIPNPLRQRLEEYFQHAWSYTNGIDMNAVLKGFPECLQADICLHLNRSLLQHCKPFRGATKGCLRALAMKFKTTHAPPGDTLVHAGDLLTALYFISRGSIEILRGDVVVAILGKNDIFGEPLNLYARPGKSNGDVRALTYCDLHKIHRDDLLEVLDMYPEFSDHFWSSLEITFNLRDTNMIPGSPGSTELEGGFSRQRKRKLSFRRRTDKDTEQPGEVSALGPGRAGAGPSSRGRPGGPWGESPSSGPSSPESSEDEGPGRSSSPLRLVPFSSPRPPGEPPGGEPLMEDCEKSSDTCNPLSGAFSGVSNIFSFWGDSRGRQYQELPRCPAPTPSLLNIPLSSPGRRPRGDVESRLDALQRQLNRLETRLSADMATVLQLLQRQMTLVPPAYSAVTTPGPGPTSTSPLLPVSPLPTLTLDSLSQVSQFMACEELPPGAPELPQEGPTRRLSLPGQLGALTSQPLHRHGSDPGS

Compound | hERG current change (%, negative = inhibition) at 10uM [%]
Cn1c(=O)n(C)c2cc(/C=N/NC(=O)c3ccncc3)ccc21 | 5.41
O=c1c2cc3c(=O)n(-c4ccccc4O)c(=O)c3cc2c(=O)n1-c1ccccc1O | 16.9
Cc1c(C)c2c(OCC(=O)N[C@@H](Cc3ccccc3)C(=O)O)cc3c(c2oc1=O)CCC(C)(C)O3 | -0.584
CCOc1ccc(C(=O)NCC2OCCc3ccccc32)cc1 (stereo not shown) | -8.57
O=C(Nc1ccccc1)c1cnc2ccccc2n1 | -8.27
COc1ccc(C(C(=O)NCC2CCCO2)N(C(=O)Cn2nnc3ccccc32)c2ccc(NC(C)=O)cc2)cc1 (stereo not shown) | 14.6
O=C(CSC1=NCCS1)N1CCN(c2ccccc2)CC1 | -8.5
N#CCSc1ncnc2sc3c(c12)CCC3 | 9.43
C=CCNC(=O)NC(=O)c1csc([N+](=O)[O-])c1 | 5.83
O=C(NCCc1nc2ccccc2[nH]1)c1cc([N+](=O)[O-])cc([N+](=O)[O-])c1 | -8.57
CCOCCCNC(=O)c1cc2c(=O)n3cccc(C)c3nc2n1C | 12.4
COc1ccccc1NC(=O)CCSc1ccc(C)cc1 | -13.8
CCCOc1cccc(-c2nn(-c3ccccc3)cc2/C=C(\C#N)C(=O)NCCCn2ccnc2)c1 | -13.7
C=CCn1c(CSCc2ccccc2)nnc1SCC(=O)NCc1ccccc1 | -18
CC(=O)c1cccc(NC(=O)c2cc(C)no2)c1 | -1.59
O=C(Cn1ncc2c([nH]c3ccccc32)c1=O)N1CCN(c2ccccn2)CC1 | 19.5
COc1ccccc1-c1nnc2sc(-c3cnccn3)nn12 | -7.42
O=C1C[C@H]2[C@H](CO)[C@@H](OC(=O)c3ccc(-c4ccccc4)cc3)C[C@H]2O1 | -4.68
COc1ccc(N2CCN(C(=O)CSc3nc4ccccc4c(=O)[nH]3)CC2)cc1 | -10.7
C=CCN(C)CC/C=C1\c2ccccc2CSc2ccccc21.Cl | -48.8
Cc1ccc(NCc2nnc3n2CCCCC3)cc1 | 12.8
FC(F)(F)c1cc(-c2ccccc2)nc(NC2CCCC2)n1 | 10.2
CCCN(CC(=O)Nc1ccc(C(C)=O)cc1)CC(=O)Nc1ccccc1C | 5.73
COc1cnn(-c2ccc([N+](=O)[O-])cc2)c(=O)c1Cl | -2.52
CCOC(=O)N1CCC(N2C(=O)c3cc(C(=O)NC4CCCCC4)ccc3C2O)CC1 (stereo not shown) | -9.82
O=C(N/N=C/c1ccco1)c1cccc(S(=O)(=O)Nc2ccccc2Cl)c1 | -11.9
O=C(N/N=C/c1ccc(OC(F)F)cc1)c1cccc(S(=O)(=O)N2CCOCC2)c1 | 7.22
COc1ccc(CCNC2CC(=O)N(CCc3ccccc3)C2=O)cc1OC (stereo not shown) | 0.286

Compound | hERG current change (%, negative = inhibition) at 10uM [%]
Cc1cccc(C)c1NC(=O)CN(C)C(=O)CC1Sc2ccccc2NC1=O (stereo not shown) | 7.95
O=C(O)c1cccc(Cn2c(Cl)c(/C=N/NC(=O)c3ccc(O)cc3)sc2=O)c1 | 2.09
COc1cnc(-c2ccccn2)nc1Sc1ccccc1Cl | -9.22
Cc1ccc(-n2ncc3c(NCc4ccc5c(c4)OCO5)ncnc32)c(C)c1 | -28.9
O=C1CCCc2[nH]c(-c3ccccc3)nc21 | 13
O=c1c(/C=N/O)coc2ccc3ccccc3c12 | -5.77
O=C(CCN1C(=O)S/C(=C/c2ccccc2)C1=O)Nc1ccc(O)c(C(=O)O)c1 | 24.9
CCOc1ccc(S(=O)(=O)Nc2cccc(C(=O)NCC(c3ccc(OC)cc3)N3CCOCC3)c2)cc1 (stereo not shown) | -1.21
NC(=O)c1nc(-c2ccccc2)c(-c2ccccc2)[nH]c1=O | -0.448
O=C(c1ccccc1)c1cnc(-c2ccc(Cl)cc2)s1 | 2.84
COc1cc(C(C)=O)ccc1OCC(O)CNCC(O)c1ccccc1.O=C(O)C(=O)O (stereo not shown) | 0.805
CC1CCCCN1Cc1c(O)ccc2c(=O)c(-c3nc4ccccc4s3)coc12 (stereo not shown) | -48
O=C(CSCc1c(Cl)cccc1Cl)Nc1ccc2c(c1)OCCO2 | -11.4
COc1cc(OC)c(-c2nc(-c3ccncc3)no2)cc1OC | 6.91
O=C(O)CC(CC(=O)O)(C(=O)O)c1ccccc1 | 21.1
O=C(CN1CCN(Cc2ccccc2)CC1)N/N=C/c1ccccc1F | -29.3
CC(C)Nc1cc(C(C)(C)C)nc2c(-c3ccccc3)cnn12 | 8.72
CC1(C)CC(CC(=O)NC(=S)Nc2ccc([N+](=O)[O-])cc2)C(=O)O1 (stereo not shown) | -21.2
Cc1ccccc1CCN1CCCC(CN(C)C(=O)C(=O)c2ccco2)C1 (stereo not shown) | -70.1
CCN(CC)C(=O)c1cnn(-c2ccccc2)c1NC(=O)c1cccc(F)c1 | 13.3
Clc1ccc(OCCOCCOc2cccc3cccnc23)c(Br)c1 | 0.0859
CC(C)CC(NC(=O)C1CCCCC1)C(=O)N1CCC2(CC1)OCCO2 (stereo not shown) | -13.1
CC(C)(C)N1C(=O)[C@H]2[C@@H](c3ccc(Br)cc3)N3C(=O)N(c4ccc(Br)cc4)C(=O)[C@@]3(Cc3ccccc3)[C@H]2C1=O | 2.33
C=C(C)CN(Cc1ccccc1)C(=S)Nc1ccccc1 | 18.1
C/C(=N\NC(=O)CCCNc1ccc(C)cc1)c1ccccn1 | -12.5
Cc1ccc(S(=O)(=O)CCNC(=O)Cc2ccccc2)cc1 | 26.9
Cc1ccc(Cn2nnc3c(=O)n(CC(=O)NCc4ccco4)cnc32)cc1 | -4.07
